# Source: the supplement of paper PMC3334620
# Over roughly 33,000 sequences, “E-score (-0.5 to 0.5)” has its median near -0.01; the highest 2% begin near 0.26. The list shows a part of the results.
# Biological target: Ste12 (UniProt P13574)
# Assay: PBM E-score (8-mer binding enrichment) (E-score (-0.5 to 0.5)); higher = stronger / more preferred TF binding; most listed sequences are background and not binding sites
# Settings: protein concentration: 200 nM; construct: GST-DNA-binding domain
# Procedure, shortened: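 E-scores (a modified Wilcoxon-Mann-Whitney statistic) were assigned by the Universal PBM Analysis Suite to every ungapped eight-base word pooled with its reverse complement. The input came from universal all-10-mer Agilent arrays made double-stranded by primer extension and probed with GST-tagged yeast transcription factors at about 100-200 nM. Fluorescent anti-GST detected bound protein, and masliner normalised the scans.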
row,Sequence,PBM E-score
1,CGGCTTTC,-0.0465
2,AGCTAGAG,-0.136
3,ACCCCTCT,-0.0156
4,ACGGATTG,-0.115
5,GATGCTGC,-0.322
6,AAAGGGTG,-0.00052
7,CCTACCGA,-0.146
8,CGGGTCGA,-0.0237
9,ACATGTGC,-0.0339
10,GGGGTTGA,-0.015
11,GATAAACC,0.0557
12,GACCTCTC,-0.00492
13,CTCGGAAG,-0.0488
14,AACTACCG,-0.0753
15,CTAGAGAC,-0.195
16,AACATCGT,0.0998
17,CGTTGGCA,0.0575
18,CACTGAAC,0.0627
19,ACGCGGTC,-0.145
20,ATCCCTAG,-0.145
21,ACCACCTA,0.0154
22,AAAGGTAG,-0.114
23,CTGCCCCC,-0.257
24,CTGACGCC,0.0592
25,ACTCATAA,-0.0536

row,Sequence,PBM E-score
1,CTCTAAAG,-0.0956
2,AGCTCATG,-0.187
3,ACGCAACC,0.148
4,CGGAGTCC,-0.00193
5,CGCGGCTA,0.00151
6,AAGGGCAC,-0.0647
7,GCATTGCA,0.0622
8,ATACTGAC,0.0347
9,TCGAACGA,0.0875
10,GAGGTATC,0.00329
11,CATAAATA,0.268
12,CGGTGTAC,0.029
13,CTGAAAAC,0.0248
14,CCAAATAG,0.0193
15,ATGCCCTA,-0.157
16,CCTCTTCG,-0.104
17,CTTGCCTC,0.0771
18,CCCACGAG,-0.23
19,ACGTGGAG,-0.147
20,AGACTGTC,-0.141
21,CCGGCTAC,0.0776
22,CCACTAGA,-0.152
23,GCGATGGA,-0.113
24,AGTATATA,0.295
25,CGCCCCAC,0.272

row,Sequence,PBM E-score
1,AGCTTGCC,-0.158
2,AGGACTCC,-0.253
3,AACGAGCC,0.0134
4,CATACCTC,-0.064
5,AGCGTTCA,-0.19
6,GGCAAACC,-0.193
7,TAACCTCA,-0.072
8,AAATCTGA,0.266
9,AGCTATGA,-0.0667
10,CATCGGAC,-0.209
11,GCGGTGAA,0.119
12,CCTGGGCA,-0.208
13,ATTAAGCG,0.175
14,ACGTCTAT,0.0773
15,CGTCCGGA,-0.0698
16,CACGTATA,0.0207
17,ACCATCCA,-0.198
18,CCATCAAG,-0.16
19,CCCCATGA,0.0199
20,GGACTCCA,-0.141
21,AGAAAACG,0.0569
22,AAAGCGTA,0.0231
23,GCACGATA,0.0163
24,ACTAAAGC,0.0971
25,GACCCACC,-0.0232

row,Sequence,PBM E-score
1,GATACCCA,-0.191
2,AACGCTCC,-0.0438
3,CAATCTGG,-0.182
4,TAGATCAA,0.0668
5,CACATTAA,0.0442
6,AAAGTGAT,0.176
7,AGCCTGAC,-0.215
8,GCATGTAA,0.00356
9,ATCAGGCA,0.0108
10,ACCTCTCT,-0.0427
11,GCTACGAA,0.0641
12,ATGATTGG,0.0104
13,AAACAGCC,0.125
14,ACTCATCC,0.108
15,CGCTTGAG,-0.0259
16,AAGCGACA,-0.0402
17,AAGGTAGT,0.129
18,AACGCAGC,-0.0375
19,AGTAACGA,0.0261
20,GACACATA,0.11
21,AGGAACTC,-0.137
22,AGATAAAA,0.245
23,AATTTCGT,0.187
24,AGGCCGCA,-0.22
25,ATTATATA,0.116

row,Sequence,PBM E-score
1,CCGACACA,-0.0323
2,CACCGTCC,-0.117
3,AATCGCCG,-0.0024
4,GCCGGTGA,-0.0927
5,CGATATCA,0.0159
6,ACTGTTCA,-0.129
7,TCGCTAAA,0.0124
8,CACTCACA,0.0133
9,AGGTCCAT,-0.0313
10,CACCGATG,-0.177
11,CCCGATTA,0.122
12,AGGACTGC,-0.285
13,AGACTCAG,-0.0523
14,AGATTTTA,0.0447
15,TATTGGGA,0.18
16,GGAGGACC,-0.0774
17,AGTAGCCC,-0.0526
18,CGCAGTTC,-0.0325
19,CCACTAAG,0.0233
20,AGTGGCAT,-0.108
21,GCGAAGCA,-0.0747
22,GGTACTAC,-0.0333
23,CTTCGGGC,-0.177
24,CACACCAG,0.0883
25,ACGACGCA,-0.0748

row,Sequence,PBM E-score
1,AATCCCCA,0.0533
2,GGGAAGAC,-0.0593
3,TAGCTAAA,0.00267
4,AGGGATGG,0.0232
5,AGTTTTGC,0.156
6,CGGACTAA,0.132
7,CTGCACAG,-0.198
8,CAGCCGCA,-0.157
9,ATCCTCAA,0.00575
10,GCAATCGA,-0.159
11,ACGTCATG,-0.075
12,ATTACGCG,0.117
13,CGGGTAAC,-0.0548
14,ACCAGCGA,-0.0273
15,ACCTTTGA,0.0506
16,ATTGACAG,0.124
17,GAAAGTCC,-0.165
18,CACCGGAA,0.217
19,CCATGTGA,-0.104
20,AAATTAGA,0.283
21,TCCAATCA,-0.0995
22,CTCGTTGA,-0.116
23,GTATCCAA,-0.0481
24,GAATTCAC,0.0558
25,CTTCTCTC,-0.0296

row,Sequence,PBM E-score
1,CTTAGCTA,-0.153
2,ACGCCTCG,-0.0327
3,CGCGGATA,0.153
4,GGTAGTCA,-0.142
5,ATCACCAG,-0.0965
6,ACTGAAAA,0.101
7,ACGTTAGG,-0.0933
8,ACGAACGC,-0.0254
9,AGCTACGC,-0.218
10,TAAAGAAA,0.203
11,CTGACCGC,0.123
12,AAGGATAG,0.056
13,TCATAGGA,0.0455
14,ACATGGGT,-0.0722
15,GGAACTCA,-0.215
16,TCATGGAA,0.151
17,AGTAGCAC,-0.0791
18,ACAAGGGT,-0.0412
19,ACTAGTAT,0.149
20,CAGAGGAC,-0.159
21,ATAGAACC,-0.00797
22,ACAGACCA,0.0248
